Data from US20200347135A1 (published 2020).

B1: AS25170_HCAb (Fc fusion)
heavy: QVKLVESGGGLVQSGGSLRLSCAVSGSGYSYSRGCFAWFQQRPGKEREGVAIINMDGHTMYSDLAQGRFIISQDKAKNTLYLQMNSLKPDDTAMYYCAYDRDQCYVLRDRLRLPDTFNDWGQGTQVTVSS[human IgG4 Fc with S228P (EU numbers) skipped]
B2: AS15193_HCAb (Fc fusion)
heavy: QIQLVESGGGSAQAGGSLRLSCVVSGNIYNRNFMGWFRQAPGKVREGVAAIYTGTSRTYYADSVKGRFTISQDNAKNTVYLQMNSLKPEDTAMYYCAADLRDGFWDTGVWNTWGQGTQVTVSS[human IgG4 Fc with S228P (EU numbers) skipped]
B3: AS15156_HCAb (Fc fusion)
heavy: B2 heavy with I2V, V23A, N27Y, A40V, S56E, A97V, F104T
B4: AS06962_HCAb (Fc fusion)
heavy: QVHLVDSGGGLVQPGGSLRLSCAASGSITSRNTMGWYRQVPGKQRELVALIATFVTHYADSVKGRFTISRDNARKMVFLEMNSLQPEDTGAYYCYVDVSPYWGRGTQVTVSS[human IgG4 Fc with S228P (EU numbers) skipped]
B5: AS15899_HCAb (Fc fusion)
heavy: QVQLVESGGGSVQAGGSLRLSCAASGYTAGSLCMGWFRQAPGKEREGVAAIYTGGGSTYYADSVKGRFTISQDNAKNTVYLQMNSLKPEDTAQYYCGAGSREDYCDRGYIYDHWGQGTQVTVSS[human IgG4 Fc with S228P (EU numbers) skipped]
B6: AS15881_HCAb (Fc fusion)
heavy: QVQLVESGGGSVQAGGSLRLSCAASGFTDSSYCGAWFRQVPGKEREGVAIIDRYGGTMYKDSVKGRFTISKDTAKNILYLQMNSLKLEDTAMYYCAAAEYRGSSCDAESGYWGQGTQVTVSS[human IgG4 Fc with S228P (EU numbers) skipped]
B7: AS15892_HCAb (Fc fusion)
heavy: B6 heavy with V2I
B8: AS15883_HCAb (Fc fusion)
heavy: B6 heavy with Q3H, V5M, R19T, G26V, S31N, G34M, E99G, E108D
B9: AS15152_HCAb (Fc fusion)
heavy: QMQLVESGGGSVQAGGSLRLSCAVSGYIYNRNFMGWFRQAPGKEREGVAAIYTGGPYTYYTDSVQGRFTISQDNTKNTVYLQMNSLKPEDTAMYYCVSDLSDGTWDQGRWNYWGQGTQVTVSS[human IgG4 Fc with S228P (EU numbers) skipped]
B10: AS15193VH8M1_HCAb (Fc fusion)
heavy: EVQLVESGGGLVQPGGSLRLSCAVSGNIYNRNFMGWFRQAPGKGLEGVSAIYTGTSRTYYADSVKGRFTISRDNSKNTVYLQMNSLRAEDTAVYYCAADLREGFWDTGVWNTWGQGTLVTVSS[human IgG4 Fc with S228P (EU numbers) skipped]
B11: AS15193VH18_HCAb (Fc fusion)
heavy: B10 heavy with L45R, S75A, A88P, E102D
B12: AS15193VH8_HCAb (Fc fusion)
heavy: B10 heavy with E102D
B13: AS15193VH18M1_HCAb (Fc fusion)
heavy: B10 heavy with L45R, S75A, A88P

These binders were tested against T1, human PD-1-His antigen (UniProt Q15116 partial chain) (assay: SPR).

| Kd [nM] | Binder |
| --- | --- |
| 9.8 | B1 |
| 0.951 | B2 |
| 2.67 | B3 |
| 39 | B4 |
| 3.8 | B5 |
| 3.3 | B6 |
| 4 | B7 |
| 3.9 | B8 |
| 18.3 | B9 |

These binders were tested against T2, human PD-1 expressed on cells (UniProt Q15116 25-288) (assay: FACS binding).

| EC50 [nM] | Binder |
| --- | --- |
| 7.2 | B1 |
| 1.26 | B2 |
| 4.91 | B3 |
| 1.48 | B5 |
| 2.18 | B6 |

Biological target: T1, human PD-1-His antigen
Experiment: SPR
Remark: another data set of the same source

T1 sequence (Q15116 25-170): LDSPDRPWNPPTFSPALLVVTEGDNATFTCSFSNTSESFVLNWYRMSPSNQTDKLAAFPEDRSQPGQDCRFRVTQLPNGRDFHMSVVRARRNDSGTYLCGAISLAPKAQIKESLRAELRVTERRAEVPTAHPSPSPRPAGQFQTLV

| Kd [nM] | Binder |
| --- | --- |
| 4 | B2 |
| 20 | B10 |
| 7 | B11 |
| 9.7 | B12 |
| 15 | B13 |

Biological target: T2, human PD-1 expressed on cells
Experiment: FACS binding
Remark: another data set of the same source

T2 sequence (Q15116 25-288): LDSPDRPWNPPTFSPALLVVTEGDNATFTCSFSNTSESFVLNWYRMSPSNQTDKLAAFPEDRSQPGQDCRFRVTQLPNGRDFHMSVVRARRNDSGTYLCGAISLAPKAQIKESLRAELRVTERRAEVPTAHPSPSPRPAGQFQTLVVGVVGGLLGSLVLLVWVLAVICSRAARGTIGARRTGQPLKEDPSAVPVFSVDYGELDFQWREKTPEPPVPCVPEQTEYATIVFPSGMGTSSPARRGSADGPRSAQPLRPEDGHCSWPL

| EC50 [nM] | Binder |
| --- | --- |
| 1.26 | B2 |
| 1.92 | B10 |
| 1.61 | B11 |
| 1.78 | B12 |
| 1.8 | B13 |

What follows are binders tested against T2, human PD-1 expressed on cells (assay: FACS ligand competition (PD-L1-Fc)).

| IC50 [nM] | Binder |
| --- | --- |
| 0.79 | B2 |
| 1.96 | B10 |
| 1.57 | B11 |
| 1.64 | B12 |
| 1.75 | B13 |

What follows are binders tested against T2, human PD-1 expressed on cells (assay: FACS ligand competition (PD-L1 Fc)).

| IC50 [nM] | Binder |
| --- | --- |
| 3.01 | B1 |
| 0.79 | B2 |
| 2.2 | B3 |
| 0.91 | B5 |
| 1.66 | B6 |

Positions count from the first letter of the chain named.
